Data published in PubChem BioAssay (Tox21).
Where “and” joins values, the source holds several entries; their conditions need not be identical. Equal values may be shown once. Inconclusive means that the source gave no clear call. Such entries were picked first, then a sample of the others. Where the call is inconclusive, the potency comes from a doubtful curve fit. Calls of active or inactive are those of the source. The call rests on the fitted dose curve; in most records, active means well fitted cell-killing curve with a large enough effect in the repeat runs; inconclusive means weak or mixed curves, or effect the other way; inactive means flat fitted curve, though single readings scatter.

Test: qHTS RealTime-Glo MT Cell Viability Assay in HEK293 cells - 40 hour (AID 1224874); further: nearly all actives have a fitted effect of over 50% in size
Details: RealTime-Glo luminescence; max response: stronger effect = lower value
In short: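 Luminescence readout at each listed time point; HEK293, 600 cells/well, RealTime-Glo MT reagent added with cells; compounds pinned (23 nL in DMSO) after 5 h at 37 C; continuous culture at 37 C.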
Potency means the concentration at half of the fitted maximal effect; tags describe the fitted curve by direction and shape.

Row | SMILES | Potency
1 | Clc1ccc(-c2ccc(Cl)c(Cl)c2Cl)c(Cl)c1Cl | inconclusive: 58.7 µM [cytotoxic, partial curve, poor fit]
2 | ClC(Cl)=C(c1ccc(Cl)cc1)c1ccc(Cl)cc1 | inconclusive: 56.3 µM [cytotoxic, single point] and inconclusive: 54.9 µM [cytotoxic, single point]
3 | CCCCCCCCCc1ccc(O)cc1 | active: 11.1 µM and active: 6.92 µM
4 | CO/N=C(/C1=NOCCO1)c1ccccc1Oc1ncnc(Oc2ccccc2Cl)c1F | inconclusive: 43.6 µM [cytotoxic, partial curve]
5 | C=CCC1=C(C)C(OC(=O)C2C(C=C(C)C)C2(C)C)CC1=O (stereo unspecified) | active: 41.2 µM
6 | Cc1ccc(N=C=O)cc1N=C=O | inconclusive: 34.7 µM [rising, partial curve]
